Data from the supplement of paper PMC10681739.
± gives the standard deviation of the averaged measurements. Whole data set: some 4,100 sequences, median “arbitrary fluorescence units” near 780, cut for the highest 2% near 22,000. The list shows a part of the results.

These sequences were tested against T1, ETS1 (UniProt P14921) (assay: ETS1 binding intensity (PBM fluorescence), ETS1 alone (arbitrary fluorescence units); higher = stronger binding). Settings: ETS1 concentration 1 nM; RUNX1 concentration 0 nM.
T1 sequence: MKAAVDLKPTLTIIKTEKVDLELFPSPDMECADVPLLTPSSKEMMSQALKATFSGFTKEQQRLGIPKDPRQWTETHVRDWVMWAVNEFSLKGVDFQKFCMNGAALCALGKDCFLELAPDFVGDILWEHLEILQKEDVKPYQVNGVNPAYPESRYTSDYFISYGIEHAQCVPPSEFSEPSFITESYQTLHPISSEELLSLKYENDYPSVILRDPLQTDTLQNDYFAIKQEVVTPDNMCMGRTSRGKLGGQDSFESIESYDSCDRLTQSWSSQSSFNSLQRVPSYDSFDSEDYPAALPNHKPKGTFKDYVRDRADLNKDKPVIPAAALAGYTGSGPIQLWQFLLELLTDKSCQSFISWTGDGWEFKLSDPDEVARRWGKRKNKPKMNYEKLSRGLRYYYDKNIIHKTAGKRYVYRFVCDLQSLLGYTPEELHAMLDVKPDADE
In short: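 Double-stranded Agilent 4 × 180k arrays held 36-bp genomic probes whose RUNX1 partner site was mutated, and these were incubated with 1 nM full-length recombinant human ETS1 in the absence of RUNX1 under standard PBM protocols. Bound protein was labelled with anti-ETS1 antibody (Cell Signaling Technology 14069) plus an Alexa488-conjugated secondary and read on a GenePix 4400A, with four spots printed per sequence. Binding level is reported as raw spot fluorescence intensity summarised over replicate spots.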

Sequence | ETS1 binding intensity
CCCCTCCGCTAAGCGCTCATCCCAGGAAAAAGGGGC | 348
TGGGACTCTCAGCCCCAGAAGGCAGGAAATAGTGGC | 820
GCCTCCTTCCTGGGCTCCTTTAAGAGGGTGGCAACG | 1980
CCTGCGCCGAAGCGTCCGGCCGCCGCTGGGTAGGGC | 843
GCTTGTAGTTGGAAACCTGCAGTCACAGAGGAAGTG | 497
TGGTGGGTGCTCACAGAGCACTTCCGCATTCCTGAG | 2960
CCGGGCGGGTGAAAAGTCCGAGAGAATCAGGATGGA | 379
GGTTGCTCGGATCCGGGACTGCCGAAGGGGGTGCCA | 494
CCTTGAAACAGCGGGGTGGGGAAGTCTAAAAATAGT | 527
GAAAAATGAAGTTTCCGCAGTAACCCCAACACAGCC | 1480
CCCTTTTTGGTCACAAAAACATTTCCTAGTTGAGAT | 543
CTGCGGATGGAGCCTGCTCCTGCAAATCCACTGCTG | 336
CACGCTTGCTATCACAAAAAGGAAATGCATCTGCAG | 536
CAACGGCGTAGCCGGAAGTCAGTGGATTTCGCCCCA | 7360
CCTCAGGAGAAAGCACCCTAGTAGTTCCGCTCCGAG | 412
AGGACCGGAAGTGCCCGAGGGCGGCCGGAGAACGGT | 45500
AGAGTGTAGCCGGAGAACTCACATCCTTGTTTACAT | 529
GAGACACCTCATGGGTAGAGAAACTTCCGTAATGTT | 606
ACTCTGTAGTTTCATTGCCTGCCCGGAAATGCAGCT | 852
GATATGGCAGGAAGTAGGGCCTGGAAACAGCACGGC | 5700 ± 280
AGGCTCATTTCCTGTTTTCATGTAGTTTAGAGAAAA | 24300
CTCTTCCTGCCTGTCCGTGGCTGGTGTAGTTTGCGT | 7100
GTGCAACTGCTGTAAAAATAGGAAGTGGGGGAGGAG | 861
CCATAGCCTAACCCCAAGCACCTCAGGAAGTTCTTT | 443
AAAAATATCACACTAGCTAGGGCAGGAAGTGGGTGG | 1050
ACTGCTTCTTGAGGTGAGGGACAGGAAACCAAGAGG | 649
ACCTCTTCCGAGACCCAAAATGCGCGATCTGGAGAG | 591

Sequence | ETS1 binding intensity
GGGAGGAAGTGTGAAGGGACTTTTTTGGTGAGTGAT | 743
AGTAGCCGCTAGCAATCTCATGAGCAGGAAGCACAA | 406 ± 20
CGGGAGCGGCCGAAGTGACGACTTCCGGGATGCTCC | 7380
GTGTCCTGTGCTCTCCTCTGCGCCACTTCCCTGCCT | 623
GGGGTGCTGGGAAATGGAGCGAGAGGTGGATTCCAG | 466
CCGCCGCGACACTTCCGGCGGCCACCAGAGGGTATT | 20200
AGTTGGTTCCTTCCGGTGGGTTTGTGAGTTTGGGGT | 8000
AAACAAGCGCTAACGCGACCACTTCCGCCACAGCCT | 4580
GGATGACATCCGGCACCAACTTATCCACTAATCTCA | 13800
GAAGAAGTCAGGAAATGCTGCCGTAGCAGCCAGCCC | 1420
CTGCGGAAGCAGCCAAGGCGGGCCCTCCCGTAGGCC | 1100
CCTCCGCTGGGGTGTCTGTAACTACTTCCTCAGGAG | 490
ACACAGGAAGCAAAAGTTAAGCTATAAAACCCTCAA | 1720
CTCCTGGGCTCGTTGTCAAAACATCCTGTAGCAAGG | 1130
GCGGGGCGTGTCCACGCACTTCCGGTTTTCTCGAAA | 28700
CGGAGCCCAACGACCGGCACTTCCGGGGGGCGGGTG | 5010
TCTCTCTACGGAAGCTGGTAGGGCTGTAGGTGCTTC | 562
GTTCACGTTCCGCTCTTAGTGCGCGTTGAGTTCCCC | 429
AGAGGCAGCTTCCGGAGACTGCTCTCTGGCCAGTTT | 9500
CCACCCACTTCCTGCCCTAGCTAGTGTGATATTTTT | 19300
ATCGGCGGTCCCCCAGGTCCCGGATGTAGCGGACAG | 1480
GCGCCGCTCACAGCCGATCGACATTTCCCAGAATCA | 313
GCGCGGCCCGGAAGGGGGTAAACGCTGAGTCTTTGA | 1160
TCAGAACCCCAGACGTGGCCCTGCGTGGCTTCCGGC | 757
AAGGCGGAGGAAGGGAAAATTGGGGTTGGGCAGAGG | 418
CAGGATCTGCTGCAGGCCCGCCTTCCGTCCCCGGCC | 508
ATAGCTTGGGGTTTATGGGTCAGGAAGTTGAGGGTG | 598

Sequence | ETS1 binding intensity
TCTCTTTGCCGCGAGGAAAGCTGGGAAATGTAGTGC | 463
ACCCTACTTCCGTTGCTGTGTCGCGGAGGTGACCTA | 17100
AGTGACGTTTGGGGCAGTAAGGCTTCCGTCGGAAAA | 601
TCAACGCCACCCCAAAGAGACGTCCGGGAGAAGCCT | 433
GCACAGCGATCACAGAGGTGACGCGGAAGGAGACTG | 381
CCCTTCGCTTCCGCTCCGCGTTCCAACAATGCAGTG | 9720
TTGTCACGTCCGGCACGCCGCGAACGTCAAGGAACC | 5430
TGGAGGAGACAACACCTTCAAGCAACATCCTCTCCT | 559
AATTGAGACAGGAAATGTTGGTTTGGGGTCAGGCAC | 5970
ACCTCACCCTCATAGTGTTAAGAAAGCGTTTCCTGC | 755
CCTTTACTTCCTTTTACTTCTAATCACAGAATTAAA | 8540
TGGCAGCAAAGCACGGAGGCTTCTCGGATGTGCAGA | 326
GAAATGAAGGCCGGATGTCAGTAACCCCAAACGAGC | 9810
TGTTGGAAACTACAGGGCCCGGTGGATATCCGTCAC | 403
CGGTGCAGTGAGCTCGACACTCACTTCCCTGTGCAG | 345
CTCGGCCTACGGCGGGGTAGAGCGCCGGAAACGGCT | 761
GACCCGGCTACACCTCAAGAAAAGGAAGTTCCCGTA | 564
GCTTCTTCCGGCCGGGCCGAGAGGTGCTTACATTCG | 17900
GACAGAACCTGTGCTCTGCAGGGTTTCCTGTTAAAC | 941
GCTGTATTCGGTGGCTTAGGATGTAGGTTTCTTTGT | 512
TCCTCCGTTTCCGTAGTTCCGAGTTGCGATTTCTCC | 3890
GGAGGCGGAAGTGGAGGTTGTTGGGGCTCCGAGGGC | 4230
GCAAAAACAACGGTCTTGAAGGAAGCCTGCCTGATA | 382
CCCATTTCCGAGAGTGGCAGGGCTGGGCGCGGAGGG | 2750
CATTGAATGGGGTAGGAGGTGGGGAGGAAGCCACTG | 594
CTGCCCACCGGAAACGATGGCGCGAGGCCGCTGAGC | 18600
